Test results: the supplement of paper PMC10126150
Values marked as one replicate rest on one cluster of the flow cell; about a third of the high ones do not repeat.

System: ATP
Assay: switch fluorescence ratio, 500 uM ATP over buffer (Cy3 cluster intensity, sum of 5 cycles each) (fold (ratio)); higher = stronger signal-on switching upon ATP binding; sequences stand for … in TCGTCGGCAGCGTCAGATGTGTATAAGAGACAGTTTTTTTTTTTTTTTTTTTTTTTTT…TC
Conditions: aptamer strand: ATP DNA aptamer (quencher-CACCTGGGGGAGTATTGCGGAGGAAGG + anchor), 100 nM annealed; ATP concentration: 500 uM; one replicate
Procedure, shortened: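 Five buffer/ATP imaging cycles were run on Cy3-labelled switching-strand clusters on a modified Illumina MiSeq flow-cell, with NaOH stripping and re-annealing between cycles. In each cycle, clusters annealed to 100 nM quencher-labelled ATP aptamer were imaged in selection buffer, then after 15 min with 500 uM ATP at 22 °C. Per cluster, the fluorescence ratio is summed target-cycle over summed buffer-cycle Cy3 intensity, averaged per switch-domain sequence. Only clusters within 100-1000 RFU were kept.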
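Note: ATP exposure 15 min at 22 °C before imaging.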

Row | Sequence | switch fluorescence ratio
1 | TGCACAATTG | 1.01
2 | GTGAAACGCA | 1.06
3 | GTGTCGGACA | 1.02
4 | TCTAGGGGTT | 1.02
5 | AGAAGTGCGC | 1.02
6 | TCTGACTCTG | 0.971
7 | CCAGGCAACT | 1.26
8 | ACGCAGGTCG | 0.967
9 | GATATCAATC | 1.02
10 | TCAATCGTGC | 0.981
11 | CTATCTCTGG | 1.02
12 | TCCCTAGGGA | 1.06
13 | CAGGTCCACT | 1.02
14 | ATAGTAGCGG | 1.04
15 | TCCTACACTG | 1.12
16 | TTAAACGGAT | 1.01
17 | AGTTGTACCC | 0.993
18 | ACGTATGAGC | 1.08
19 | TGGTACCTTC | 1.11
20 | GCGCTAGGCA | 1.01
21 | CATTACCCAG | 1.12
22 | TCCTAATGTT | 0.995
23 | TAGCTAAAAG | 1

Row | Sequence | switch fluorescence ratio
24 | TAAAAATGAA | 1.04
25 | GACCAGCCCG | 1.05
26 | TTGCTACTT | 0.978
27 | AGGAGTAGTT | 1.02
28 | AATACCAGGA | 1.03
29 | GACCCACAAA | 1.24
30 | CGAATTGTTA | 0.956
31 | AAGAGCGTAA | 1.01
32 | ATCGCGGTCG | 0.994
33 | GAAAGTGAC | 0.947
34 | ATCAACGTGT | 0.972
35 | GGCCCAGCAG | 1.08
36 | CTGCTAGCTC | 1.27
37 | TTGGAACTAA | 1.02
38 | GATGAATG | 1.01
39 | CGTTACCCCT | 1.05
40 | TAGTTGTTAC | 0.995
41 | AGACCAGGCG | 1.04
42 | AAGTTTTAAC | 0.994
43 | TGCTGGAGCC | 0.987
44 | GTTATATCCC | 0.983
45 | AAGTAAAAAA | 1.13
46 | TATTTATCCA | 1.02

Row | Sequence | switch fluorescence ratio
47 | GTCAGAGCAT | 1.03
48 | TGGGGCCAGC | 0.959
49 | TACGCAGCAG | 3.51
50 | TGCCGAGTA | 1.05
51 | ATGCAAGTAA | 1.05
52 | TGCTTCGCGC | 1.55
53 | GTTCTGGCCC | 1.01
54 | ATAGGTCTCC | 1.03
55 | GAGTTCCGAG | 0.998
56 | ATTAGGCCTT | 1.07
57 | GGTGGGGCGG | 0.952
58 | TGCAGTCACG | 0.98
59 | AATGGGGCTA | 0.998
60 | CTACGGTAGC | 1.58
61 | GACGATATTG | 0.963
62 | ATTGGGCTTG | 0.987
63 | GTTGGTAGCG | 0.955
64 | TCGGATATCT | 0.941
65 | GTCAGATTAT | 0.966
66 | GACTACGT | 0.992
67 | TGGGTCTGG | 1
68 | AGCTAGTGCC | 0.995
69 | ATAGCCCAGG | 2.6

Row | Sequence | switch fluorescence ratio
70 | TTGAGGCTCC | 0.964
71 | ACTATTTTCA | 1.04
72 | ACTTCACCGG | 2.04
73 | TGATCGCGCT | 1.02
74 | GGCGGTCGTA | 0.999
75 | CGCTGAAAC | 1.4
76 | TTCAAGATTG | 0.992
77 | CGACTCCTCC | 1.76
78 | ATCCATGGGC | 1.02
79 | CGAACGGTGC | 2.04
80 | CCCGTATCGA | 0.994
81 | AATCCTGGGT | 0.995
82 | CGCCCATCGA | 0.952
83 | AGCGGTTCTG | 1.09
84 | TATAACAT | 1.06
85 | TTAAAATTGA | 1
86 | GACGTCTTGG | 0.997
87 | TGAGCCTTTT | 1.02
88 | ACGTGACAGC | 1.2
89 | AGTTTCGCCA | 0.989
90 | ACTTTATCAC | 1.11
91 | GAGTGTGCT | 1.05
92 | TCGCTGCAGG | 1.01

Row | Sequence | switch fluorescence ratio
93 | GGGATCAATA | 1.02
94 | TAGGTCAACA | 0.97
95 | GAAAAGGCGG | 0.968
96 | TGTCGCGCTT | 1.07
97 | AATGCGTCGG | 1.01
98 | GAGAGCGAAG | 1.05
99 | GAACGCGCAT | 1.02
100 | CACTTTCTTG | 0.986
101 | AGTTCGATTA | 1.03
102 | ACACTATTTT | 1.03
103 | TTGGCTCTCG | 0.969
104 | TTATATGGAT | 0.98
105 | TTACAATGGT | 0.99
106 | CTGCGAGACA | 1.14
107 | ACCTTTGCGG | 1.05
108 | CGTTTGTAAG | 1.03
109 | AGGGGAAATT | 1
110 | AAAGTAATAT | 1.07
111 | TGCCATCTAT | 0.975
112 | ATCGGCACTG | 1.05
113 | CGGATGGGG | 1.07
114 | ATGACTTTGT | 1.13
115 | ATGTAGTTTC | 0.972

Row | Sequence | switch fluorescence ratio
116 | AGCCTCATAC | 1.83
117 | GGAGTAGCTT | 0.972
118 | GCAATCGTAG | 1.12
119 | CGCGTTAGCC | 1.04
120 | AAAGATTGGA | 0.994
121 | CGTCGCGGA | 0.949
122 | GTGGAAACCT | 1.09
123 | AGCGGCTTTG | 0.992
124 | AGCTGCTTCC | 1.81
125 | GTTTTTCTCG | 1.01
126 | CGAATGTAA | 1.35
127 | AACTAGGAG | 0.936
128 | TGACAGTATG | 1.05
129 | CGTGAGCATT | 1.51
130 | CTGTTATGAT | 1
131 | AAGCGAGCTA | 1.02
132 | CTGGACACAC | 1.34
133 | GGCTTCATCA | 1.03
134 | ATTTGAGGAC | 0.962
135 | GCTCGCCCTC | 1.16
136 | TCTGTCTGAT | 1.02
137 | GCAGGGGTCA | 0.992
138 | AACACACTGG | 1.28

Row | Sequence | switch fluorescence ratio
139 | TGTTAGCATG | 0.942
140 | GGATCTATCG | 0.996
141 | GCCGACTGGG | 0.996
142 | TCTAAGCCTG | 1.03
143 | GTGACATATA | 1.08
144 | GATTGCCTAC | 1.07
145 | GGCCACCGCG | 1.03
146 | TCGACAGCCC | 1.11
147 | CCACCAGTCA | 1.2
148 | ATGGTGTGGT | 0.995
149 | AGATAGCCGC | 1.03
150 | AAGGATCGCT | 1.01
151 | TCATGAATCT | 1.03
152 | AGAGATCGAT | 0.99
153 | GCGGTAGC | 1.02
154 | GATAGTACAC | 1.07
155 | CTCCAGGTGC | 2.93
156 | TTGCATGCCA | 0.981
157 | GCGTATGCAT | 1.03
